According to paper PMC4336329 (PLoS ONE, 2015):
Hit rate of the full screen: of about 310,000 compounds, about 14,000 (4.5%) showed an effect of 50% or more. Effects have a minus sign here. The list shows a part of the results.

These compounds were tested against human ether-à-go-go-related gene (hERG) potassium channel (human, UniProt Q12809) (assay: primary screen, population patch clamp on CHO cells stably expressing hERG).
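Also: peak tail current of the secondary pulse compared with the same well before compound.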

Sequence of human ether-à-go-go-related gene (hERG) potassium channel (Q12809 whole entry, looked up): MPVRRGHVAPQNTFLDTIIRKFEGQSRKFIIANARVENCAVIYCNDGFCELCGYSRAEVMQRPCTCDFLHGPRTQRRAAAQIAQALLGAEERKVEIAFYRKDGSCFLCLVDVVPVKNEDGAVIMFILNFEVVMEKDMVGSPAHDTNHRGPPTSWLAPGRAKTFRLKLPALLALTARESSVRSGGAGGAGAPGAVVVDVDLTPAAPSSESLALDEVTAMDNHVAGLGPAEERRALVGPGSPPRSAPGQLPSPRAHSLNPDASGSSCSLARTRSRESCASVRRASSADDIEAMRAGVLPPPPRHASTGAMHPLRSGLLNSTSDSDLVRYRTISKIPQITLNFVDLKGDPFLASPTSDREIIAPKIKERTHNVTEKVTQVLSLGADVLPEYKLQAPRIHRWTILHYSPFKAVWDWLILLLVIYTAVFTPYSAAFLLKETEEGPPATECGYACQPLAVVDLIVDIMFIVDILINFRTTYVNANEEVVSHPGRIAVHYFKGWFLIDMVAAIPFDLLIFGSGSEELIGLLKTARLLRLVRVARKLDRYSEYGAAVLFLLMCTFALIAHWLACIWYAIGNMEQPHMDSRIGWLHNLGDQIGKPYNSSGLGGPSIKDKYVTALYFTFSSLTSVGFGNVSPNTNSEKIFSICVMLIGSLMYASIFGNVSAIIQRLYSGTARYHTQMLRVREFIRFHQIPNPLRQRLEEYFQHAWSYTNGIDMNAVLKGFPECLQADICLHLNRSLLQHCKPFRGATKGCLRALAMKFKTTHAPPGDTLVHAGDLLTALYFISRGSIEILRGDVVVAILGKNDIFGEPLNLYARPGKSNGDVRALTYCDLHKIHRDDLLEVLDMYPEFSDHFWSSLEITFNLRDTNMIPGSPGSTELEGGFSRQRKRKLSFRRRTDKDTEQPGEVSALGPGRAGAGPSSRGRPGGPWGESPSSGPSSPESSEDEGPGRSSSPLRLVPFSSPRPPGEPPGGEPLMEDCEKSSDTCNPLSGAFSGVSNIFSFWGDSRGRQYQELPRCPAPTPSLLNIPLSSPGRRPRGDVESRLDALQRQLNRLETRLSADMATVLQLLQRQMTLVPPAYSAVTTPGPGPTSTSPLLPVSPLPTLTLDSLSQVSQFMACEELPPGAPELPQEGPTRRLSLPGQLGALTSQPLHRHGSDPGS

| Structure (SMILES) | hERG current change (%, negative = inhibition) at 10uM [%] |
| --- | --- |
| CCn1c(SCC(=O)OC)nnc1-c1ccncc1 | 7.28 |
| CCN(CC)C(=O)Cn1cc(C(=O)C(=O)NCC2COc3ccccc3O2)c2ccccc21 (stereo not drawn) | -31.3 |
| CCCCn1nnnc1SCC(=O)Nc1ccc(N(C)C)cc1 | 2.43 |
| O=C1NN=C(c2ccc(Cl)cc2)CC1c1cccc(Br)c1 (stereo not drawn) | 4.07 |
| COc1ccc(CC(=O)NCC2COc3ccccc3O2)cc1 (stereo not drawn) | -1.08 |
| CCS(=O)(=O)CCn1c([N+](=O)[O-])cnc1C | 3.01 |
| NC(=O)c1c(NC(=O)c2ccc([N+](=O)[O-])o2)sc2c1CCCC2 | 25.3 |
| CCc1nn(C(CC)C(=O)NCCCc2ccccc2)c(=O)c2cc3occc3n12 (stereo not drawn) | -8.43 |
| COc1ccc(CCN2CC(C(=O)Nc3cc(F)ccc3F)CC2=O)cc1OC (stereo not drawn) | -0.742 |
| CN(C)C(/C=C/Nc1ccccc1F)=C(C#N)C#N | 9.69 |
| CCOC(=O)Cc1csc(NC(=O)c2cc(C)on2)n1 | 5.17 |
| O=C(CNC(=O)c1ccc2c(c1)OCCO2)N/N=C/c1ccc(O)cc1O | 0.243 |
| COc1ccc(N2CCN(C(=O)CN3C(=O)NC(c4ccc(OC)cc4)(c4ccc(OC)cc4)C3=O)CC2)cc1 | -4.55 |
| CCOC(=O)C1=C(O)C(=O)N(Cc2cccnc2)C1c1ccc(OC)cc1 (stereo not drawn) | 22.6 |
| COc1ccc(S(=O)(=O)N(C)CC(=O)NCc2ccccc2)cc1OC | 4.31 |
| Cc1ccc(NC(=O)NCCCN2CCCC2=O)cc1C | 18.6 |
| CSc1nsc(SC)c1NC(=O)OCc1ccccc1 | -11 |
| Cc1ccc(S(=O)(=O)N2CCCC2CNC(=O)C(=O)Nc2ccc(F)cc2F)cc1 (stereo not drawn) | -30.9 |
| CN1CC(C(=O)c2ccc(Cl)cc2)C(c2ccccc2F)C1 (stereo not drawn) | -46.5 |
| Nc1nnnn1/N=C/c1cc(Cl)cc(Cl)c1O | 20.2 |
| CC1(C)CC(NC(=O)CCC2CCCC2)CC(C)(C)N1 | -2.63 |
| CCOC(=O)c1c(NC(=O)CSC(=S)N2CCOCC2)sc(C)c1C | -8.09 |
| Cc1ccccc1C(=O)NNC(=O)C(=O)Nc1cccc(Cl)c1C | 10.5 |
| Cc1ccc(-c2nnc(SCC(=O)N/N=C/c3ccccc3C(=O)O)n2-c2ccc(C)cc2)cc1 | 3.7 |
| O=C(NCCC1=CCCCC1)c1cc(S(=O)(=O)N2CCOCC2)c(Cl)cc1Cl | 10.7 |
| O=C(NCCO)c1ccc(Oc2ccc(C(F)(F)F)cc2[N+](=O)[O-])cc1 | -0.131 |
| COc1ccc(CCNC(=O)c2c(C)nn(-c3ccccc3)c2Cl)cc1OC | 10.6 |

| Structure (SMILES) | hERG current change (%, negative = inhibition) at 10uM [%] |
| --- | --- |
| O=[N+]([O-])c1ccc(N/N=C/c2ccc(OCc3cccc4ccccc34)cc2)nc1 | 13.4 |
| COc1cccc(CN(C)CC(=O)Nc2cccc(S(N)(=O)=O)c2)c1OC | -4.27 |
| Cn1c(O)c(/C=N/NC(=O)c2ccncc2)c(=O)n(C)c1=S | 13.4 |
| CC(NC(=O)COC(=O)c1ccc(CO)cc1)C1CC2CCC1C2 (stereo not drawn) | 7.65 |
| N#C/C(=C\C1=C(N2CCOCC2)C(=C/c2cccc([N+](=O)[O-])c2)/CC1)C(=O)Nc1ccccc1F | 5.79 |
| CC(=O)Nc1cccc(-c2nnc3n2CC(C)S3)c1 (stereo not drawn) | 14.3 |
| CCCCC(=O)Nc1nnc(S(=O)(=O)N2CCCc3ccccc32)s1 | 6.69 |
| Cc1cccc(OCC(=O)OC2CCN(C)CC2)c1.Cl | 0.454 |
| CCN(CC)c1ccc2c(c1)C(=O)N(C)C2=O | 10.6 |
| Cc1cc(/C=C2/NC(=O)NC2=O)c(C)n1-c1cccnc1 | 9.26 |
| COc1ccc(/C=C/C(=O)NC(=S)NN2CCCCC2c2cccnc2)cc1OC (stereo not drawn) | 3.25 |
| COC(=O)c1ccc(NC(=O)COC(=O)C2=NN(c3ccccc3)C(=O)CC2)cc1 | 0.388 |
| O=C(Cc1ccc(-c2ccccc2)cc1)Nc1ccccn1 | 22.3 |
| COc1ccc(-c2nn(-c3ccccc3)cc2C(=O)Nc2ccc(C(=O)O)cc2)cc1OC | 11.1 |
| CC(C)(C)c1ccc(OCCC(=O)NCC(c2cccs2)N2CCOCC2)cc1 (stereo not drawn) | -43.9 |
| C#CCOCCOCCOCCNc1nc(N2CCN(C(=O)[C@H]([C@@H](C)CC)n3cc([C@@H](N)Cc4ccc(O)cc4)nn3)CC2)nc(N2CCN(C(=O)[C@H]([C@@H](C)CC)n3cc([C@@H](N)Cc4ccc(O)cc4)nn3)CC2)n1.Cl | 8.94 |
| O=C(Cn1ncc2c(=O)oc3ccccc3c21)N1CCN(C(=O)c2ccco2)CC1 | -73.6 |
| CN(C)CCNC(=O)c1cccn(Cc2cc(C(F)(F)F)cc(C(F)(F)F)c2)c1=O | -14.8 |
| Br.O=[N+]([O-])c1cccc(-n2nnnc2CN2CCCC2)c1 | -7.57 |
| Cc1cccc(C2c3[nH]c4ccccc4c3CCN2Cc2ccc(C)s2)n1 (stereo not drawn) | 12.7 |
| CCn1cc(C(=O)O)c(=O)c2cnc(N3CCN(C(=S)NC(=O)c4ccc(Cl)cc4Cl)CC3)nc21 | 14.9 |
| CCc1ccc(NC(=O)CC2NCCNC2=O)cc1 (stereo not drawn) | 2.24 |
| CCOC(=O)C1=C(C)N=C2c3ccccc3C(=O)C2C1c1ccc(Cl)cc1 (stereo not drawn) | 4.86 |
| Cn1c(=NC(=O)CCS(=O)(=O)c2ccccc2)sc2cc(F)ccc21 | 9.26 |
| O=C(Cc1csc(-c2ccccc2)n1)NCc1cccs1 | -8.31 |
| CCCNC(=O)C1CCN(S(=O)(=O)c2cccs2)CC1 | 28.1 |
| CCCCN(C(=O)CCCc1nc2ccccc2s1)c1c(N)n(CCCC)c(=O)[nH]c1=O | 11.6 |
